# Experimental data reported in PubChem BioAssay AID1347073 (National Center for Advancing Translational Sciences (NCATS), 2019).
# The campaign covered roughly 45,000 compounds. About 200 (0.44%) were called active. Inconclusive results (about 7%) are left out. Calls follow the shape of the dose curve; as a rule, active = well fitted activation curve with a large enough effect; inconclusive = small, poorly fitted or top-dose-only effect; inactive = no such curve, though single readings can be large or run the other way. This is one part of the list. Peptide text beside a SMILES is read from it. * marks the point of attachment. Boc = CC(C)(C)OC(=O)*
# Assay: qHTS of TDP-43 Inhibitors: NCGC Sytravon Library Screen; also: 0% is about no effect; nearly all actives have a fitted effect of over 55% in size
# Settings: yeast TDP-43 toxicity rescue, BacTiter-Glo growth, 24 h; series mostly up to 46.1 µM; growth rescue (activation): at the top concentration
# Method in brief: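 TDP-43-expressing yeast, pregrown in raffinose, seeded at OD600 0.02 in galactose medium with compound for 24 hr at 30 deg C. Growth read by BacTiter-Glo luminescence, so rescue of toxicity appears as activation.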
row,SMILES,growth rescue (activation)
1,Cc1cc(=O)[nH]c(SCC(=O)c2ccc3c(c2)NC(=O)CO3)n1,inactive: -2.34%
2,CC(O)c1nc2ccccc2n1CCCOc1ccccc1 (stereo unspecified),inactive: -0.899%
3,CCNc1c(NC(=O)c2cccs2)c(=O)oc2ccccc12,inactive: -0.877%
4,N#Cc1cc(C(=O)c2cc(Br)ccc2O)cn(Cc2ccccc2)c1=O,inactive: 17.8%
5,CCn1c(C)nc2cc(C(=O)NNS(=O)(=O)c3ccccc3F)ccc21,inactive: 16.2%
6,O=C(N/N=C/c1ccc([N+](=O)[O-])o1)c1cc(-c2ccc(-c3ccccc3)cc2)nc2ccccc12,inactive: -9.21%
7,Cc1ccc(C)c(CN2C(=O)c3ccccc3S(=O)c3ccc(C(=O)N4CCN(c5ccccn5)CC4)cc32)c1 (stereo unspecified),inactive: -1.45%
8,CCN(CC)S(=O)(=O)c1ccc(NC2CCN(Cc3ccccc3)CC2)nc1,inactive: 5.76%
9,CCC(=O)Nc1cccc(-c2cc3ccccc3oc2=O)c1,inactive: 4.55%
10,CCC1CCCCN1C(=O)c1cc(S(=O)(=O)N2CCOCC2)ccc1C (stereo unspecified),inactive: -2.51%
11,O=C1CSC2(N1)C1CC3CC(C1)CC2C3 (stereo unspecified),inactive: 5.13%
12,COc1ccccc1-n1cnnc1SCC(=O)N1CCOCC1,inactive: 0.0478%
13,CCCOc1ccc(F)cc1-c1cc(C(=O)NCc2ccc(C(F)(F)F)cc2)[nH]n1,inactive: -0.0838%
14,CCOC(=O)c1[nH]c(C)c(C(=O)NCCC2=CCCCC2)c1C,inactive: 19.3%
15,Cc1ccc2c(c1)nnn2C1CCN(CC(=O)NCc2ccccc2F)CC1,inactive: -2.71%
16,O=C(O)c1cc([N+](=O)[O-])ccc1NCCO,inactive: 11.7%
17,ClC(Cl)(Cl)c1nc(N/N=C/c2ccncc2)c2ccccc2n1,inactive: 17.7%
18,O=C(NCc1ccccc1Cl)c1csc([C@H]2C[C@H](O)[C@@H](CO)O2)n1,inactive: 11.8%
19,Cc1noc(C)c1C(=O)N1CCC1(C)C(=O)NS(=O)(=O)c1ccc(Br)cc1 (stereo unspecified),inactive: 9.26%
20,CC(Oc1ccc(Cl)cc1Cl)C(=O)Nc1cccc(O)c1 (stereo unspecified),inactive: 4.24%
21,Cc1cc(N2CCCC2=O)ccc1S(=O)(=O)NCCOc1ccccc1,inactive: 4.06%
22,COc1ccc(-c2nnc3c4ccccc4c(-c4ccccc4)nn23)cc1,inactive: 10.4%

row,SMILES,growth rescue (activation)
1,COc1cc(/C=C2\N=C(c3c(-c4ccccc4)noc3C)OC2=O)ccc1OC(C)=O,inactive: 2.92%
2,Cc1ccc(NC(=O)Cn2c(-c3ccc(F)cc3)cnc2SCC(=O)Nc2c(C)cccc2C)cc1,inactive: -20%
3,CCSc1nnc(NC(=O)CCNC(=O)c2ccccc2Cl)s1,inactive: -4.34%
4,CSc1ccc(CN2C(=O)C(C)Sc3ccc(C(C)=O)cc32)cc1 (stereo unspecified),inactive: 19.2%
5,O=C(CN(C(=O)c1csnn1)c1ccc(F)c(Cl)c1)NC1CCCC1,inactive: 0.327%
6,CC(=O)c1cccc(NC(=O)c2ccc(C)o2)c1,inactive: -15.2%
7,Cc1ccccc1-c1cc2nc(NCc3cccnc3)n(C)c(=O)c2s1,inactive: -0.363%
8,CCN1CCN(c2cc(C)c3cc(NC(=O)c4cncc(Br)c4)ccc3n2)CC1,inactive: 2.91%
9,CCOc1ccc(Nc2nc(N)nc(CN3CCN(c4ccccc4F)CC3)n2)cc1,inactive: -3.36%
10,Cc1ccc(NC(=O)CCNC(=O)Cn2cnc3ccccc3c2=O)cc1F,inactive: 11.1%
11,O=c1[nH][nH]c(-c2ccccc2)c1C=Nc1ccccc1,inactive: 13.8%
12,N#Cc1cccc(NC(=O)C2SC(=Nc3ccccc3)C(C(=O)N3CCOCC3)=C2N)c1 (stereo unspecified),inactive: 7.56%
13,Cc1ccn2c(c1)nc(=S)n2C(=O)c1ccccc1,inactive: -1.29%
14,CCOc1nonc1C(=N)/C(C(C)=O)=C(\C)O,inactive: 9.43%
15,CC(C)Oc1cc(F)ccc1-c1cc(C(=O)Nc2ccc(C(C)C)cc2)[nH]n1,inactive: 7.02%
16,COc1cc(/C=N/Nc2ccccc2)ccc1O,inactive: 2.14%
17,Cc1c(NS(=O)(=O)c2cc(C(=O)N3CCCC(C)C3)ccc2Cl)c(=O)n(-c2ccccc2)n1C (stereo unspecified),inactive: 9.07%
18,c1ccc2oc(NC3=NCN(C4CCCCC4)CN3)nc2c1,inactive: 6%
19,O=C(CNC(=O)c1cccnc1)N/N=C/c1ccc(O)cc1O,inactive: 8.9%
20,COc1ccc(S(=O)(=O)N(C)CC(=O)NCC2CCCO2)cc1OC (stereo unspecified),inactive: -1.1%
21,CC(C)(C)c1cnnn1-c1cccc([N+](=O)[O-])c1,inactive: -7.55%
22,O=C(NCc1cccc(F)c1)c1cccc(OC2CCN(C(=O)C3CC3)CC2)c1,inactive: 15.5%

row,SMILES,growth rescue (activation)
1,O=c1c2cccnc2[nH]c(=S)n1CCCN1CCN(c2ccccc2F)CC1,inactive: 6.56%
2,Cc1ccc(S(=O)(=O)NC(=NCC(=O)O)c2ccccc2)cc1,inactive: -26.1%
3,C=CCn1c(Cc2ccccc2)nnc1SCc1nc2ccccc2c(=O)[nH]1,inactive: -13.8%
4,Cc1nc2ccc(NC(=O)c3ccc(=O)[nH]c3)cc2s1,inactive: -3.28%
5,COC(=O)c1cc(NS(=O)(=O)c2ccc(Cl)c(N3C(=O)c4ccc(C(=O)O)cc4C3=O)c2)cc(C(=O)OC)c1,inactive: 10.1%
6,CC(C)CCNC(=O)c1nn(Cc2ccccc2)c(=O)c2ccccc12,inactive: -8.84%
7,COc1cc(-c2nnc(CSc3nnc(N)s3)o2)cc(OC)c1OC,inactive: 4.84%
8,COc1ccc(CNC(=O)Cn2nnc(-c3ccc(NC(=O)C4CCCCC4)cc3)n2)cc1,inactive: 14.1%
9,CC(C)NC(=O)c1ccc2c(c1)N(Cc1ccccc1)C(=O)C(C)(C)O2,inactive: -5.25%
10,COc1cc(/C=C/C(=O)OCC(=O)NC(=O)NCc2ccccc2)ccc1OCC#N,inactive: -8.33%
11,CC1CCC2(CC1)NC(=O)N(CC(=O)NCCc1ccccc1)C2=O (stereo unspecified),inactive: -4.56%
12,O=C(C1=NN[C@@H]2C(=O)N(c3ccccc3C(F)(F)F)C(=O)[C@H]12)C(c1ccccc1)c1ccccc1,inactive: 3.87%
13,O=C(CSc1n[nH]c(-c2ccco2)n1)Nc1ccccc1Cl,inactive: -0.456%
14,CN(CC(=O)NNC(=O)c1cccnc1)S(=O)(=O)c1cc(Cl)ccc1Cl,inactive: -4.59%
15,CCCCCCCCCS(=O)(=O)Nc1cc(C)ccn1,inactive: 18.2%
16,CC(=O)Nc1ccc(OCCC[n+]2cccc(C(=O)[O-])c2)cc1,inactive: 0.54%
17,CN(C)c1ccc(/C=C(\NC(=O)c2ccccc2)C(=O)NCc2ccncc2)cc1,inactive: -6.45%
18,Cc1ccc(C)n1-n1c(C)nc2scc(-c3cccs3)c2c1=O,inactive: 22%
19,COc1ccc(NC(=O)C2CC(=O)N/C(=N/N=C/c3ccccc3)S2)cc1 (stereo unspecified),inactive: -19.6%
20,c1ccc2sc(NN=C3CCCCCC3)nc2c1,inactive: 11.8%
21,CC1(C(=O)NCC2CC2)CCN1C(=O)C/C=C/c1ccccc1 (stereo unspecified),inactive: 4.87%
22,CN(C)c1ccc(-c2ccnc3c2CC(C)(C(=O)Nc2cccc(C(F)(F)F)c2)O3)cc1 (stereo unspecified),inactive: -3.11%

row,SMILES,growth rescue (activation)
1,Cc1cc(C)n2nc(C(F)(F)F)c(-c3ccccc3)c2n1,inactive: 1.11%
2,O=C(COC(=O)Cc1ccc(F)cc1)Nc1cc(S(=O)(=O)N2CCOCC2)ccc1N1CCCC1,inactive: 0.29%
3,O=C(COc1ccccc1[N+](=O)[O-])Nc1cccc(S(=O)(=O)N2CCCC2)c1,inactive: 6.89%
4,Cc1cc(C2C(C#N)=C(N)OC3=C2C(=O)CC(C)(C)C3)c(C)s1 (stereo unspecified),inactive: 23.2%
5,COCCCNS(=O)(=O)c1ccc(SC)cc1,inactive: -2.45%
6,Cn1c2ccccc2c(=O)c2c(=O)n(-c3ccccc3)c(C3CCCCC3)nc21,inactive: -3.16%
7,COc1ccc(-n2c3c(cc(C(=O)NNc4ccccc4C)c2=O)C(=O)CC(C)(C)C3)cc1,inactive: 7.23%
8,CC1CCCC(NC(=O)CSc2ccc(F)cc2)C1C (stereo unspecified),inactive: 8.59%
9,Cc1ccccc1C(=O)NCC(=O)O,inactive: -5.53%
10,Cc1cc(NC(=O)c2ccc3c(c2)C(=O)N(C(C)(C)C)C3=O)no1,inactive: -12%
11,O=C(NNC(=O)C12CC3CC(CC(C3)C1)C2)c1ccncc1,inactive: 7.36%
12,CN(C)c1ccnc(-n2cccc2/C=N/O)c1C#N,inactive: 7.04%
13,COc1ccc(C(=O)NC2CCN(C(=O)NCc3ccccc3)CC2)cc1,inactive: -6.21%
14,CCOC(=O)C(Cc1ccc(O)cc1)NC(=O)CNC(=O)C1CCCN1C(=O)OC(C)(C)C (stereo not drawn) (Boc-Pro-Gly-Tyr-OEt; configuration not given here),inactive: -33.1%
15,CCOC(=O)/C(C#N)=N/Nc1c(C)n(C)n(-c2ccccc2)c1=O,inactive: -3.46%
16,CC(C)(CN1CCCC1)NS(=O)(=O)c1ccc(Cl)cc1,inactive: -0.184%
17,CCOc1cc(N2CCOCC2)c(OCC)cc1NC(C)C(=O)N1CCC(C)CC1 (stereo unspecified),inactive: -3.39%
18,CC(C)(CCl)C(=O)Nc1ccc(OC(F)(F)F)cc1,inactive: 2.3%
19,COc1ccc(C2/C(=C(/O)c3ccc(F)cc3)C(=O)C(=O)N2c2ccccn2)cc1OC (stereo unspecified),inactive: -5.38%
20,COc1cc(-c2cc(NC=O)c3ncc(-c4ccc(F)cc4)n3c2)cc(OC)c1OC,inactive: -2.81%
21,Cc1nnc(N2C(=O)C(O)=C(C(=O)c3ccco3)C2c2cccc3ccccc23)s1 (stereo unspecified),inactive: 17.1%
22,COc1ccc(/C=C/C2=NN(C)C(=O)CC2)cc1,inactive: 1.84%

row,SMILES,growth rescue (activation)
1,COc1ccc(NC(=O)COC(=O)CNC(=O)C2CCCCC2)cc1OC,inactive: 14.1%
2,Cc1cc(NC(=O)C2(C)CCN2C(C)C)c2ccccc2n1 (stereo unspecified),inactive: -9.21%
3,Cc1ccc(C(C(=O)NCc2ccc(F)cc2)N(Cc2ccco2)C(=O)c2snc(C(N)=O)c2N)o1 (stereo unspecified),inactive: 21.6%
4,c1coc(C2=Nc3cccc4cccc(c34)N2)c1,inactive: -24.1%
5,CCCCn1c(-c2cccnc2)n[nH]c1=S,inactive: 20.8%
6,OC(c1ccccc1)c1ncc(-c2ccc(C(F)(F)F)cc2)[nH]1 (stereo unspecified),inactive: 8.29%
7,CC1CCN(C(=O)CSc2nc(C3CC3)nc3ccccc23)CC1,inactive: 19.7%
8,CCN(CC)c1ccc(CNC(=O)C/C(C)=N/NC(=O)COc2ccc(C)cc2Br)cc1,inactive: -6.63%
9,COc1ccc(C(=O)OCC(=O)NC2CCCC2)cc1OC,inactive: 0.142%
10,OC(CN1CCCCC1)Cn1c2ccccc2c2cc(Br)ccc21 (stereo unspecified),inactive: -13.8%
11,O=C(CC1S/C(=N/N=C/c2c[nH]c3ccccc23)NC1=O)Nc1ccccc1 (stereo unspecified),inactive: 8.47%
12,Cc1ncoc1C(=O)N1CCCC(CCC(=O)NCc2ccccc2F)C1 (stereo unspecified),inactive: -2.64%
13,O=C(/C=C/c1ccco1)NC(=S)N1CCCCC1,inactive: 2.45%
14,Cc1ccccc1C(=O)OCC(=O)N(C)c1ccccc1,inactive: 13.1%
15,O=C(Nc1ccccc1)N1C(=O)C2(OCCO2)c2ccccc21,inactive: 10.6%
16,O=C(CN1C(=O)c2ccccc2S1(=O)=O)NC(Nc1ccccc1F)C(Cl)(Cl)Cl (stereo unspecified),inactive: -17.2%
17,COc1ccc(C(c2nnnn2C2CCCC2)N2CCN(C(=O)c3ccco3)CC2)cc1OC (stereo unspecified),inactive: 1.19%
18,CCOC1=C/C(=C/c2c(N)n3nc(S(=O)(=O)CC)sc3nc2=O)C=CC1=O,inactive: -0.469%
